In the supplement of paper PMC10369915:
The list shows a part of the results. No stated cut-off is given here; in the data, active = 3.2 or more and inactive = the rest. Only a few entries rise above the background.

What was measured:
Assay in all cases: enrichment score (SH2-bound / input frequency) (ratio); bacterial display of known human phosphotyrosine sites (pTyr-Var adds point mutants) read by sequencing; higher = stronger binding; tyrosines were phosphorylated by kinases first
Details in all cases: peptide library: Human pTyr
[1] = molecular target: SHP2 C-SH2 domain E139D
[2] = molecular target: SHP2 C-SH2 domain wild-type
[3] = molecular target: SHP2 N-SH2 domain L43F
[4] = molecular target: SHP2 N-SH2 domain T42A
[5] = molecular target: SHP2 N-SH2 domain T52S
[6] = molecular target: SHP2 N-SH2 domain wild-type
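Further: displayed peptides selected on beads carrying the immobilized SH2 domain, with library peptides lacking any tyrosine serving as negative controls.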

| Binder | enrichment score [1] | enrichment score [2] | enrichment score [3] | enrichment score [4] | enrichment score [5] | enrichment score [6] |
| --- | --- | --- | --- | --- | --- | --- |
| EEDEDEEYEAMNRRR [ERBB3_HUMAN_1197_YA] | inactive: 1.33 | inactive: 0.841 | inactive: 0.632 | inactive: 0.733 | inactive: 0.817 | inactive: 0.977 |
| GTTPDEDYEAMNRQR [ERBB3_HUMAN_1260_YA] | inactive: 0.646 | inactive: 0.606 | inactive: 0.47 | inactive: 0.682 | inactive: 0.606 | inactive: 0.743 |
| DGPYSNPYENSLIPA [EPOR_HUMAN_489] | inactive: 0.697 | inactive: 0.489 | inactive: 0.62 | inactive: 0.429 | inactive: 0.515 | inactive: 0.456 |
| DEDEEYEYMNRRRRH [ERBB3_HUMAN_1199] | inactive: 0.902 | inactive: 0.928 | inactive: 0.884 | inactive: 0.839 | inactive: 0.874 | inactive: 1.07 |
| CKNVVPLYDLLLEML [ESR1_HUMAN_537] | inactive: 1.8 | inactive: 1.68 | inactive: 1.79 | inactive: 1.77 | inactive: 1.74 | inactive: 2.07 |
| DMMDAEEYLVPQAFN [ERBB4_HUMAN_1022] | inactive: 0.858 | inactive: 0.776 | inactive: 0.739 | inactive: 0.719 | inactive: 0.716 | inactive: 1.05 |
| KFDTQYPYGEKQDEF [ERP29_HUMAN_66] | inactive: 0.949 | inactive: 0.858 | inactive: 0.869 | inactive: 0.642 | inactive: 0.862 | inactive: 0.88 |
| KFSHSGRYIMTRDYL [2ABB_HUMAN_295] | active: 3.46 | active: 3.52 | inactive: 3.11 | inactive: 3.1 | active: 3.63 | active: 4.43 |
| IASLNEGYARDFDPA [F16P1_HUMAN_216_YA] | inactive: 0.632 | inactive: 0.495 | inactive: 0.508 | inactive: 0.531 | inactive: 0.555 | inactive: 0.5 |
| EHPNVIRYFCTEKDR [ERN1_HUMAN_628] | inactive: 0.891 | inactive: 0.806 | inactive: 0.818 | inactive: 0.846 | inactive: 1.1 | inactive: 1.02 |
| KAFDNPDYWNHSLPP [ERBB4_HUMAN_1242] | inactive: 0.823 | inactive: 0.689 | inactive: 0.963 | inactive: 0.8 | inactive: 0.648 | inactive: 0.769 |
| EEDEDEEYEYMNRRR [ERBB3_HUMAN_1197] | inactive: 1.42 | inactive: 0.891 | inactive: 1.6 | inactive: 1.21 | inactive: 1.52 | inactive: 1.17 |
| GELDEEGYMTPMRDK [ERBB4_HUMAN_1150] | inactive: 1.2 | inactive: 0.851 | inactive: 0.941 | inactive: 0.81 | inactive: 0.855 | inactive: 0.872 |
| AQIPEGDYLSYREFH [ERBIN_HUMAN_1104] | inactive: 0.617 | inactive: 0.473 | inactive: 0.564 | inactive: 0.442 | inactive: 0.546 | inactive: 0.585 |
| FYEEIKKYEKLETEE [ADRBK1_HUMAN_92] | inactive: 2.1 | inactive: 2.41 | inactive: 3 | inactive: 1.15 | inactive: 2.89 | inactive: 1.8 |
| TDTLQNDYFAIKQEV [ETS1_HUMAN_223] | inactive: 0.657 | inactive: 0.858 | inactive: 0.75 | inactive: 0.831 | inactive: 0.89 | inactive: 0.834 |
| SAFDNPDYWHSRLFP [ERBB3_HUMAN_1328] | inactive: 0.68 | inactive: 0.686 | inactive: 0.605 | inactive: 0.579 | inactive: 0.746 | inactive: 0.755 |
| EDSSTQRYSADPTVF [ERBB4_HUMAN_1128] | inactive: 0.578 | inactive: 0.517 | inactive: 0.517 | inactive: 0.449 | inactive: 0.512 | inactive: 0.522 |

| Binder | enrichment score [1] | enrichment score [2] | enrichment score [3] | enrichment score [4] | enrichment score [5] | enrichment score [6] |
| --- | --- | --- | --- | --- | --- | --- |
| GTTPDEDYEYMNRQR [ERBB3_HUMAN_1260] | inactive: 0.64 | inactive: 0.684 | inactive: 0.665 | inactive: 0.533 | inactive: 0.601 | inactive: 0.733 |
| TPDEDYEYMNRQRDG [ERBB3_HUMAN_1262] | inactive: 0.608 | inactive: 1.06 | inactive: 0.951 | inactive: 0.873 | inactive: 0.709 | inactive: 0.994 |
| IYSLNEGYARDFDPA [F16P1_HUMAN_216] | inactive: 0.58 | inactive: 0.462 | inactive: 0.51 | inactive: 0.552 | inactive: 0.635 | inactive: 0.475 |
| KEVHKSGYLSSERLI [EZRI_HUMAN_146] | inactive: 0.832 | inactive: 0.871 | inactive: 0.897 | inactive: 0.888 | inactive: 0.811 | inactive: 1.06 |
| STLQHPDYLQEYSTK [ERBB4_HUMAN_1258] | inactive: 0.595 | inactive: 0.625 | inactive: 0.838 | inactive: 0.488 | inactive: 0.666 | inactive: 0.526 |
| AEPLPPSYVACSGGG [EPOR_HUMAN_504] | inactive: 0.641 | inactive: 0.406 | inactive: 0.536 | inactive: 0.393 | inactive: 0.201 | inactive: 0.28 |
| SPAFDNLYAWDQDPP [ERBB2_HUMAN_1221_YA] | inactive: 0.536 | inactive: 0.428 | inactive: 0.765 | inactive: 0.695 | inactive: 0.471 | inactive: 0.894 |
| SSLEELGYEYMDVGS [ERBB3_HUMAN_1222] | inactive: 0.893 | inactive: 0.818 | inactive: 0.774 | inactive: 0.953 | inactive: 0.798 | inactive: 0.768 |
| AQIPEGDYLSAREFH [ERBIN_HUMAN_1104_YA] | inactive: 0.616 | inactive: 0.602 | inactive: 0.7 | inactive: 0.447 | inactive: 0.531 | inactive: 0.697 |
| EEEDVNGYVMPDTHL [ERBB3_HUMAN_1159] | inactive: 1.05 | inactive: 0.952 | inactive: 1.08 | inactive: 0.888 | inactive: 1.03 | inactive: 0.969 |
| DSSKPAVYNYPEGAA [ESR1_HUMAN_52] | inactive: 0.608 | inactive: 0.654 | inactive: 0.709 | inactive: 0.712 | inactive: 0.748 | inactive: 0.821 |
| CPASEQGYEEMRAFQ [ERBB3_HUMAN_1289] | inactive: 1.3 | inactive: 0.985 | inactive: 1.11 | inactive: 1.05 | inactive: 1.25 | inactive: 1.34 |
| STLQHPDYLQEASTK [ERBB4_HUMAN_1258_YA] | inactive: 0.682 | inactive: 0.644 | inactive: 0.645 | inactive: 0.542 | inactive: 0.645 | inactive: 0.772 |
| SSDEEYIYMNKVTIN [AF1L2_HUMAN_56] | inactive: 0.981 | inactive: 1.01 | inactive: 0.854 | inactive: 0.836 | inactive: 0.867 | inactive: 1.36 |
| GRDPPDPYVSLLLLP [ESYT1_HUMAN_1009] | inactive: 1.25 | inactive: 0.838 | inactive: 1.14 | inactive: 1.17 | inactive: 1.04 | inactive: 0.863 |
| GGGPGGDYAAMGACP [ERBB3_HUMAN_1276] | inactive: 0.866 | inactive: 0.685 | inactive: 0.732 | inactive: 0.734 | inactive: 0.736 | inactive: 0.957 |
| GHSPPPAYTPMSGNQ [ERBB4_HUMAN_1056] | inactive: 0.676 | inactive: 0.656 | inactive: 0.751 | inactive: 0.685 | inactive: 0.791 | inactive: 0.869 |
| SPAFDNLYYWDQDPP [ERBB2_HUMAN_1221] | inactive: 0.776 | inactive: 0.858 | inactive: 0.697 | inactive: 0.84 | inactive: 0.907 | inactive: 0.877 |
